# Some of the results follow.
# B1: Strep tagII-anxA1 (Homo sapiens), P04083 (protein)
# chain: MAMVSEFLKQAWFIENEEQEYVQTVKSSKGGPGSAVSPYPTFNPSSDVAALHKAIMVKGVDEATIIDILTKRNNAQRQQIKAAYLQETGKPLDETLKKALTGHLEEVVLALLKTPAQFDADELRAAMKGLGTDEDTLIEILASRTNKEIRDINRVYREELKRDLAKDITSDTSGDFRNALLSLAKGDRSEDFGVNEDLADSDARALYEAGERRKGTDVNVFNTILTTRSYPQLRRVFQKYTKYSKHDMNKVLDLELKGDIEKCLTAIVKCATSKPAFFAEKLHQAMKGVGTRHKALIRIMVSRSEIDMNDIKAFYQKMYGISLCQAILDETKGDYEKILVALCGGN
# How the values were obtained:
# Assay in all cases: glycan array binding signal (z-score within array); higher = stronger binding
# Conditions in all cases: glycan notation: IUPAC condensed, linker removed
# [1] = target: GlcNAc(a1-4)Gal(b1-4)GlcNAc(b1-3)Gal(b1-4)GlcNAc(b1-3)Gal(b1-4)GlcNAc
# Procedure, shortened: (§1)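 From the Consortium for Functional Glycomics database, 3228 arrays were curated, keeping only those whose protein sequence was available. Binding is given as a within-array Z-score averaged across arrays sharing a protein sequence and across linkers. Negative Z-scores can be read as non-binding.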
# [2] = target: GlcNAc(a1-4)Gal(b1-4)GlcNAc(b1-3)Gal(b1-4)[Fuc(a1-3)]GlcNAc(b1-3)Gal(b1-4)[Fuc(a1-3)]GlcNAc
# Procedure, shortened: as §1
# [3] = target: GlcNAc(a1-6)Gal(b1-4)GlcNAc
# Procedure, shortened: as §1
# [4] = target: GlcNAc(b1-2)Gal(b1-3)GalNAc
# Procedure, shortened: as §1
# [5] = target: GlcNAc(b1-2)Man(a1-3)[GlcNAc(b1-2)Man(a1-6)]Man(b1-4)GlcNAc(b1-4)GlcNAc
# Procedure, shortened: as §1
# [6] = target: GlcNAc(b1-2)Man(a1-3)[GlcNAc(b1-2)Man(a1-6)]Man(b1-4)GlcNAc(b1-4)[Fuc(a1-6)]GlcNAc
# Procedure, shortened: as §1
# [7] = target: GlcNAc(b1-2)Man(a1-3)[GlcNAc(b1-4)][GlcNAc(b1-2)Man(a1-6)]Man(b1-4)GlcNAc(b1-4)GlcNAc
# Procedure, shortened: as §1
# [8] = target: GlcNAc(b1-2)[GlcNAc(b1-4)]Man(a1-3)[GlcNAc(b1-2)Man(a1-6)]Man(b1-4)GlcNAc(b1-4)GlcNAc
# Procedure, shortened: as §1
# [9] = target: GlcNAc(b1-2)[GlcNAc(b1-4)]Man(a1-3)[GlcNAc(b1-4)][GlcNAc(b1-2)Man(a1-6)]Man(b1-4)GlcNAc(b1-4)GlcNAc
# Procedure, shortened: as §1
# [10] = target: GlcNAc(b1-2)[GlcNAc(b1-4)]Man(a1-3)[GlcNAc(b1-4)][GlcNAc(b1-2)[GlcNAc(b1-6)]Man(a1-6)]Man(b1-4)GlcNAc(b1-4)GlcNAc
# Procedure, shortened: as §1
# [11] = target: GlcNAc(b1-2)[GlcNAc(b1-4)]Man(a1-3)[GlcNAc(b1-4)][GlcNAc(b1-2)[GlcNAc(b1-6)]Man(a1-6)]Man(b1-4)GlcNAc(b1-4)[Fuc(a1-6)]GlcNAc
# Procedure, shortened: as §1
# [12] = target: GlcNAc(b1-2)[GlcNAc(b1-6)]Man(a1-6)[GlcNAc(b1-2)Man(a1-3)]Man(b1-4)GlcNAc(b1-4)GlcNAc
# Procedure, shortened: as §1
# [13] = target: GlcNAc(b1-2)[GlcNAc(b1-6)]Man(a1-6)[GlcNAc(b1-2)Man(a1-3)]Man(b1-4)GlcNAc(b1-4)[Fuc(a1-6)]GlcNAc
# Procedure, shortened: as §1
# [14] = target: GlcNAc(b1-2)[GlcNAc(b1-6)]Man(a1-6)[GlcNAc(b1-2)Man(a1-3)][GlcNAc(b1-4)]Man(b1-4)GlcNAc(b1-4)GlcNAc
# Procedure, shortened: as §1
# [15] = target: GlcNAc(b1-3)Gal
# Procedure, shortened: as §1
# [16] = target: GlcNAc(b1-3)Gal(b1-3)GalNAc
# Procedure, shortened: as §1
# [17] = target: GlcNAc(b1-3)Gal(b1-4)Glc
# Procedure, shortened: as §1
# [18] = target: GlcNAc(b1-3)Gal(b1-4)GlcNAc
# Procedure, shortened: as §1
# [19] = target: GlcNAc(b1-3)Gal(b1-4)GlcNAc(b1-3)Gal(b1-4)GlcNAc
# Procedure, shortened: as §1
# [20] = target: GlcNAc(b1-3)GalNAc
# Procedure, shortened: as §1
# [21] = target: GlcNAc(b1-3)Man
# Procedure, shortened: as §1
# [22] = target: GlcNAc(b1-3)[GlcNAc(b1-4)][GlcNAc(b1-6)]GlcNAc
# Procedure, shortened: as §1
# [23] = target: GlcNAc(b1-3)[GlcNAc(b1-6)]Gal(b1-4)GlcNAc
# Procedure, shortened: as §1
# [24] = target: GlcNAc(b1-3)[GlcNAc(b1-6)]GalNAc
# Procedure, shortened: as §1
# [25] = target: GlcNAc(b1-4)Gal(b1-4)GlcNAc
# Procedure, shortened: as §1
# [26] = target: GlcNAc(b1-4)GlcNAc
# Procedure, shortened: as §1
# [27] = target: GlcNAc(b1-4)GlcNAc(b1-4)GlcNAc
# Procedure, shortened: as §1
# [28] = target: GlcNAc(b1-4)GlcNAc(b1-4)GlcNAc(b1-4)GlcNAc(b1-4)GlcNAc
# Procedure, shortened: as §1
# [29] = target: GlcNAc(b1-4)GlcNAc(b1-4)GlcNAc(b1-4)GlcNAc(b1-4)GlcNAc(b1-4)GlcNAc
# Procedure, shortened: as §1
# [30] = target: GlcNAc(b1-4)[GlcNAc(b1-6)]GalNAc
# Procedure, shortened: as §1
# [31] = target: GlcNAc(b1-6)Gal(b1-4)GlcNAc
# Procedure, shortened: as §1
# [32] = target: GlcNAc(b1-6)GalNAc
# Procedure, shortened: as §1
# [33] = target: GlcNAc3Prop(b1-4)GlcNAc
# Procedure, shortened: as §1
# [34] = target: GlcNAc6S(b1-3)Gal(b1-4)GlcNAc
# Procedure, shortened: as §1
# [35] = target: Kdn(a2-3)Gal(b1-3)GalNAc
# Procedure, shortened: as §1
# [36] = target: Kdn(a2-3)Gal(b1-3)GlcNAc
# Procedure, shortened: as §1
# [37] = target: Kdn(a2-3)Gal(b1-4)Glc
# Procedure, shortened: as §1
binder,measurement,setting,value
B1,glycan array binding signal (z-score),[1],-0.656
same,glycan array binding signal (z-score),[2],1.5
same,glycan array binding signal (z-score),[3],-0.562
same,glycan array binding signal (z-score),[4],-0.637
same,glycan array binding signal (z-score),[5],-0.492
same,glycan array binding signal (z-score),[6],-0.577
same,glycan array binding signal (z-score),[7],-0.727
same,glycan array binding signal (z-score),[8],-0.771
same,glycan array binding signal (z-score),[9],-0.718
same,glycan array binding signal (z-score),[10],-0.563
same,glycan array binding signal (z-score),[11],-0.569
same,glycan array binding signal (z-score),[12],-0.21
same,glycan array binding signal (z-score),[13],0.754
same,glycan array binding signal (z-score),[14],-0.77
same,glycan array binding signal (z-score),[15],-0.607
same,glycan array binding signal (z-score),[16],-0.026
same,glycan array binding signal (z-score),[17],-0.424
same,glycan array binding signal (z-score),[18],-0.207
same,glycan array binding signal (z-score),[19],-0.752
same,glycan array binding signal (z-score),[20],-0.425
same,glycan array binding signal (z-score),[21],-0.223
same,glycan array binding signal (z-score),[22],2.8
same,glycan array binding signal (z-score),[23],-0.692
same,glycan array binding signal (z-score),[24],-0.727
same,glycan array binding signal (z-score),[25],-0.716
same,glycan array binding signal (z-score),[26],-0.655
same,glycan array binding signal (z-score),[27],-0.38
same,glycan array binding signal (z-score),[28],-0.763
same,glycan array binding signal (z-score),[29],-0.703
same,glycan array binding signal (z-score),[30],-0.519
same,glycan array binding signal (z-score),[31],-0.32
same,glycan array binding signal (z-score),[32],-0.424
same,glycan array binding signal (z-score),[33],-0.494
same,glycan array binding signal (z-score),[34],-0.688
same,glycan array binding signal (z-score),[35],-0.296
same,glycan array binding signal (z-score),[36],-0.652
same,glycan array binding signal (z-score),[37],1.38
